Measured values as given in PubChem BioAssay AID540317 (National Center for Advancing Translational Sciences (NCATS), 2011).
The campaign covered roughly 390,000 compounds. About 2,200 (0.56%) were called active. The shares of active, inactive and inconclusive entries below differ from those in the screen. The call rests on the fitted dose curve; in most records, active means well fitted inhibition curve with a large enough effect; inconclusive means small, poorly fitted or top-dose-only effect; inactive means no such curve, though single readings can be large or run the other way. Potencies of inconclusive entries are doubtful fits and often do not repeat.

The compounds below were run against Chromobox protein homolog 1 (Homo sapiens) (UniProt P83916) (assay: HTS for Inhibitors of HP1-beta Chromodomain Interactions with Methylated Histone Tails). Conditions: AlphaScreen HP1-beta / biotin-H3K9me3 peptide binding; series mostly up to 114 µM; activity change, negative = inhibition: at the top concentration.
Chain of UniProt P83916 (P83916 whole entry, looked up): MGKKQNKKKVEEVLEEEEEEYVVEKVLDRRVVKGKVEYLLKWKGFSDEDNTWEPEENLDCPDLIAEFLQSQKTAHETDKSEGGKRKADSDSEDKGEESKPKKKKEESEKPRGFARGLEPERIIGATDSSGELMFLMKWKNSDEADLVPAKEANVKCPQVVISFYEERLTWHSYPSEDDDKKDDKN
Outline: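 Compound inhibition of the preformed complex between 50 nM HP1-beta and 50 nM biotinylated H3K9me3 peptide was read by AlphaScreen. Buffer was PBS pH 7.4 with 0.01% Tween-20. Incubations ran 30 min at room temperature, with 10 ug/mL donor/acceptor beads.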
Further: nearly all actives have a fitted effect of over 70% in size.
Potency means the concentration at half of the fitted maximal effect; tags describe the fitted curve by direction and shape.

**Q.** Which Potency does the source give for `COc1cccc(NC(=O)CN(C)CC(=O)Nc2ccccc2-c2ccccc2)c1` here?
**A.** inconclusive: 44.7 µM [inhibitor, partial curve, poor fit]

**Q.** For `COc1cccc(C(=O)NCC(c2ccc(N(C)C)cc2)N2CCc3ccccc32)c1` (configuration not stated), which Potency is on record?
**A.** active: 10 µM

**Q.** With `CCOC(=O)C1CCCN(C(=O)c2ccc(OC)c([N+](=O)[O-])c2)C1` (configuration not stated) as the compound, how does the Potency read?
**A.** inconclusive: 39.8 µM [inhibitor, single point]

**Q.** With `Oc1ccc(/C=N/N2CCN(C3c4ccccc4-c4ccccc43)CC2)cc1O` as the compound, how does the Potency read?
**A.** active: 50.1 µM

**Q.** For `CCCCn1c(N)c(N(CC(C)C)C(=O)CSc2nn(-c3ccc(F)cc3)c(=S)s2)c(=O)[nH]c1=O`, which “activity change, negative = inhibition” value is on record?
**A.** inactive: 33.5%

**Q.** How did the Potency turn out when `CC(C(=O)N1c2ccccc2CC1C)N1CCN(S(=O)(=O)c2ccccc2F)CC1` (configuration not stated) was run?
**A.** inconclusive: 39.8 µM [inhibitor, partial curve, poor fit]

**Q.** `Nc1cc(=O)nc(SCC(=O)Nc2ccc(F)cc2)n1-c1cccc(Cl)c1` was tested. Which “activity change, negative = inhibition” value did it give?
**A.** inactive: 47.5%

**Q.** For `CNc1ccc(/C=C/C(=O)c2ccc3c(c2)OCCO3)cc1[N+](=O)[O-]`, which Potency is on record?
**A.** inconclusive: 20 µM [inhibitor, full curve]

**Q.** For `Cc1ccc(C(=O)N/C(=C\c2ccc(-c3ccccc3[N+](=O)[O-])o2)C(=O)NCCN(C)C)cc1`, which Potency is on record?
**A.** inconclusive: 31.6 µM [inhibitor, partial curve]

**Q.** With `O=C(COC(=O)c1ccco1)NCCc1ccc(Cl)cc1` as the compound, how does the “activity change, negative = inhibition” value read?
**A.** inactive: 38.2%

**Q.** For `O=C(CN1c2ccccc2S(=O)(=O)c2ccccc21)Nc1ccccc1Cl`, which Potency is on record?
**A.** inconclusive: 89.1 µM [inhibitor, single point]

**Q.** Which Potency does the source give for `CC(=O)Nc1cccc(NC(=O)c2ccc3[nH]c(C)c(C)c3c2)c1` here?
**A.** inconclusive: 50.1 µM [inhibitor, partial curve]

**Q.** `Cc1cccc2cc(C(c3nnnn3Cc3ccccc3)N3CCN(C)CC3)c(=O)[nH]c12` (configuration not stated) was tested. Which “activity change, negative = inhibition” value did it give?
**A.** inactive: 32.2%

**Q.** `CN(C)/C=N/c1sc2c(c1C#N)CCCCC2` was tested. Which Potency did it give?
**A.** inconclusive: 31.6 µM [inhibitor, partial curve, poor fit]

**Q.** For `Fc1ccc(-c2nn3c(C4COc5ccccc5O4)nnc3s2)cc1` (configuration not stated), which Potency is on record?
**A.** inconclusive: 17.8 µM [inhibitor, partial curve, poor fit]

**Q.** `CN(C)S(=O)(=O)c1cccc(-c2nn(-c3ccccc3)cc2/C=C2\SC(=S)N(CC(=O)O)C2=O)c1` was tested. Which Potency did it give?
**A.** inconclusive: 35.5 µM [inhibitor, partial curve]

**Q.** How did the Potency turn out when `Cc1cc(Br)ccc1NCc1ccccn1` was run?
**A.** active: 15.8 µM

**Q.** `COc1ccc(OC)c(NC(=O)CSc2ncc3c(n2)-c2ccccc2N(C)S3(=O)=O)c1` was tested. Which Potency did it give?
**A.** inconclusive: 79.4 µM [inhibitor, partial curve, poor fit]

**Q.** For `N#CCN1CCC(c2cc(-c3ccco3)n[nH]2)CC1`, which Potency is on record?
**A.** inconclusive: 39.8 µM [inhibitor, single point]

**Q.** Which “activity change, negative = inhibition” value does the source give for `COc1cc(OC)cc(C(=O)Nc2ccn(C)n2)c1` here?
**A.** inactive: 10.6%

**Q.** `COc1ccccc1S(=O)(=O)Cc1ccc(C(=O)NCCN2CCCC2)o1` was tested. Which Potency did it give?
**A.** inconclusive: 35.5 µM [inhibitor, single point]

**Q.** How did the Potency turn out when `COc1ccc(C(=O)NC(=S)NC(C)c2ccccc2)cc1` (configuration not stated) was run?
**A.** inconclusive: 31.6 µM [inhibitor, full curve]

**Q.** With `O=C(N/N=C/c1ccccn1)c1ccc(Br)cc1` as the compound, how does the “activity change, negative = inhibition” value read?
**A.** inactive: 9.92%

**Q.** `CCOc1cc(/C=C2/NC(=O)NC2=O)cc(Br)c1OCc1ccc(C(=O)O)cc1` was tested. Which Potency did it give?
**A.** inconclusive: 89.1 µM [inhibitor, partial curve, poor fit]

**Q.** `CCSc1ncc(Cl)c(C(=O)N(Cc2ccc(N(C)C)cc2)Cc2ccco2)n1` was tested. Which Potency did it give?
**A.** inconclusive: 15.8 µM [inhibitor, full curve, poor fit]

**Q.** How did the “activity change, negative = inhibition” value turn out when `COc1ccc(CCN2C(=O)CC(C(N)=O)SC2=Nc2ccc(F)cc2)cc1OC` (configuration not stated) was run?
**A.** inactive: 29.4%

**Q.** `COc1ccc(N2CCN(C(=O)c3ccc(NS(=O)(=O)c4ccccc4)cc3)CC2)cc1` was tested. Which Potency did it give?
**A.** inconclusive: 70.8 µM [inhibitor, partial curve]

**Q.** Which Potency does the source give for `CCOCCCNC(=S)N(Cc1ccco1)Cc1cc2cc3c(cc2[nH]c1=O)OCCO3` here?
**A.** inconclusive: 79.4 µM [inhibitor, partial curve, poor fit]

**Q.** With `CC(OCC(O)CNCC1COc2ccccc2O1)c1ccc(Cl)cc1` (configuration not stated) as the compound, how does the Potency read?
**A.** inconclusive: 20 µM [inhibitor, full curve]

**Q.** Which “activity change, negative = inhibition” value does the source give for `Cc1cccc(C)c1NC(=O)/C(C#N)=C/c1ccc(-c2ccc(C(=O)O)cc2)o1` here?
**A.** inactive: 11.8%

**Q.** Which “activity change, negative = inhibition” value does the source give for `COC(=O)C(Cc1ccccc1)NC(=O)CNS(=O)(=O)c1ccc(Br)cc1` (configuration not stated) here?
**A.** inactive: 3.43%

**Q.** With `O=C1C(Cl)=C(NCCc2ccccc2)C(=O)c2ccccc21` as the compound, how does the Potency read?
**A.** inconclusive: 3.55 µM [inhibitor, full curve, poor fit]

**Q.** Which Potency does the source give for `CC(=O)NS(=O)(=O)c1ccc(NC(=O)/C=C/c2ccc(C)o2)cc1` here?
**A.** inconclusive: 35.5 µM [inhibitor, partial curve]

**Q.** How did the Potency turn out when `CCCCOc1ccc(N(CC(=O)NC(C)C)C(=O)CCC(=O)Nc2ccccn2)cc1` was run?
**A.** inconclusive: 44.7 µM [inhibitor, partial curve, poor fit]

**Q.** `COc1cc(NC(=S)NCCc2c[nH]c3ccccc23)c(OC)cc1Cl` was tested. Which Potency did it give?
**A.** inconclusive: 44.7 µM [inhibitor, partial curve]

**Q.** With `CCc1nc2ccc(C(=O)N(C)CC(=O)Nc3ccc(Cl)c(C(F)(F)F)c3)cc2nc1CC` as the compound, how does the “activity change, negative = inhibition” value read?
**A.** inactive: 15.6%

**Q.** How did the Potency turn out when `O=C(O)c1c(-c2ccccc2)oc2ccc(OCc3ccc(Cl)c(Cl)c3)cc12` was run?
**A.** inconclusive: 89.1 µM [inhibitor, single point]

**Q.** Which Potency does the source give for `Nc1n[nH]c(C2CC2)c1N=Nc1ccc(Cl)c(Cl)c1` here?
**A.** inconclusive: 44.7 µM [inhibitor, partial curve, poor fit]

**Q.** How did the Potency turn out when `S=C1NCCc2ccccc2C1c1ccccc1` (configuration not stated) was run?
**A.** inconclusive: 31.6 µM [inhibitor, partial curve, poor fit]

**Q.** How did the Potency turn out when `Cc1oc(-c2ccccc2)cc1C(=O)Nc1ccc(N(C)C)cc1` was run?
**A.** inconclusive: 28.2 µM [inhibitor, single point]

**Q.** Which Potency does the source give for `c1ccc(COc2cccc(CN3CCCCC3)c2)cc1` here?
**A.** inconclusive: 12.6 µM [inhibitor, full curve]

**Q.** With `O=[N+]([O-])c1ccccc1/C=N/n1c(C2CCCCC2)n[nH]c1=S` as the compound, how does the Potency read?
**A.** inconclusive: 39.8 µM [inhibitor, partial curve, poor fit]

**Q.** `O=[N+]([O-])c1ccc(N2CCN(c3ccc(O)cc3)CC2)cn1` was tested. Which Potency did it give?
**A.** inconclusive: 89.1 µM [inhibitor, single point]

**Q.** For `O=C(NCc1ccc2c(c1)OCO2)c1ccc(Cl)c(S(=O)(=O)N2CCOCC2)c1`, which “activity change, negative = inhibition” value is on record?
**A.** inactive: 11.8%

**Q.** How did the Potency turn out when `CCc1ccc(-c2csc(-c3c[nH]c4ccccc34)n2)cc1` was run?
**A.** inconclusive: 25.1 µM [inhibitor, partial curve, poor fit]

**Q.** For `CCN(CC)CCOc1cccc(C(C)C)c1`, which Potency is on record?
**A.** inconclusive: 44.7 µM [inhibitor, single point]

**Q.** With `COc1ccc(NC(=O)CSC2=Nc3ccccc3C3=NC(CCC(=O)NCc4ccc(F)cc4)C(=O)N23)cc1Cl` (configuration not stated) as the compound, how does the “activity change, negative = inhibition” value read?
**A.** inactive: 18.4%

**Q.** How did the “activity change, negative = inhibition” value turn out when `O=S(=O)(NCCSCc1ccc(Cl)cc1Cl)c1ccc2c(c1)OCCO2` was run?
**A.** inactive: 1.73%

**Q.** How did the “activity change, negative = inhibition” value turn out when `COc1ccc(CCNC(=O)Cn2nc(C)n3c(cc4cc(F)ccc43)c2=O)cc1OC` was run?
**A.** inactive: 61.4%

**Q.** Which Potency does the source give for `Cc1cccc(NC(=O)CN2CCCCCC2)c1` here?
**A.** active: 50.1 µM

**Q.** How did the Potency turn out when `CCOc1ccc(C2c3[nH]c4ccccc4c3CCN2Cc2cccn2-c2ncccn2)cc1` (configuration not stated) was run?
**A.** inconclusive: 25.1 µM [inhibitor, single point]

**Q.** Which Potency does the source give for `COc1ccccc1CN1CCc2c([nH]c3ccccc23)C1` here?
**A.** inconclusive: 44.7 µM [inhibitor, partial curve]

**Q.** For `Cc1cccc(NS(=O)(=O)c2ccc3c(c2)[C@H]2C=CC[C@H]2[C@@H](c2ccc(F)cc2)N3)c1`, which Potency is on record?
**A.** inconclusive: 50.1 µM [inhibitor, partial curve]

**Q.** `CN(Cc1c(O)ccc2c1oc(=O)c1ccccc12)C1CCCCC1` was tested. Which Potency did it give?
**A.** inconclusive: 22.4 µM [inhibitor, full curve, poor fit]

**Q.** `COc1ccc(CN2CCN(S(=O)(=O)c3ccc(F)cc3)CC2)cc1OC` was tested. Which Potency did it give?
**A.** inconclusive: 20 µM [inhibitor, full curve]

**Q.** With `Cc1ccccc1C(OCCN(C)C)C1CCCCC1` (configuration not stated) as the compound, how does the Potency read?
**A.** inconclusive: 31.6 µM [inhibitor, partial curve, poor fit]

**Q.** With `Nc1nonc1N/N=C/c1c(O)ccc2ccccc12` as the compound, how does the “activity change, negative = inhibition” value read?
**A.** inactive: 15.7%

**Q.** How did the Potency turn out when `CC1(C)C(=O)OC(c2cc(Br)ccc2O)C(C)(C)C1=O` (configuration not stated) was run?
**A.** inconclusive: 39.8 µM [inhibitor, single point]

**Q.** With `Cc1ccc(N2C(N)=C(C#N)C(c3ccsc3)C3=C2CC(C)(C)CC3=O)cc1` (configuration not stated) as the compound, how does the “activity change, negative = inhibition” value read?
**A.** inactive: 39.3%

**Q.** How did the Potency turn out when `CC(C)=CCc1c2c(c(O)c3c(=O)c4c(oc13)-c1cc(O)c(O)cc1OC4C=C(C)C)C=CC(C)(C)O2` (configuration not stated) was run?
**A.** inconclusive: 14.1 µM [inhibitor, partial curve, poor fit]

**Q.** With `COc1cccc(NS(=O)(=O)c2ccc3[nH]cc(C(=O)NCCc4ccccc4)c(=O)c3c2)c1` as the compound, how does the “activity change, negative = inhibition” value read?
**A.** inactive: 8.91%

**Q.** `Cc1cc(C(=O)COC(=O)c2ccc(Cl)c(S(N)(=O)=O)c2)c(C)n1C1CC1` was tested. Which Potency did it give?
**A.** inconclusive: 79.4 µM [inhibitor, single point]

**Q.** How did the Potency turn out when `C=CCn1cc(/C=N/Nc2nc3ccccc3[nH]2)c2ccccc21` was run?
**A.** inconclusive: 56.2 µM [inhibitor, single point]

**Q.** Which Potency does the source give for `CCN(CC)c1ccc(NC(=O)CSc2nc3nc(C)cc(C)c3c(=O)[nH]2)cc1` here?
**A.** inconclusive: 44.7 µM [inhibitor, partial curve]

**Q.** How did the Potency turn out when `O=S(=O)(c1cccc(Cl)c1Cl)N1CCN(C(=S)NCCCN2CCOCC2)CC1` was run?
**A.** active: 28.2 µM

**Q.** How did the “activity change, negative = inhibition” value turn out when `COCCCNC(=O)c1cccs1` was run?
**A.** inactive: 73.9%

**Q.** Which Potency does the source give for `Cc1ccc(S(=O)(=O)c2nc(-c3ccccc3Cl)oc2N2CCCCCC2)cc1` here?
**A.** inconclusive: 15.8 µM [inhibitor, partial curve, poor fit]
